Experimental data taken from ChEMBL document CHEMBL4888484, “Replenishing the malaria drug discovery pipeline: Screening and hit evaluation of the MMV Hit Generation Library 1 (HGL1) against asexual blood stage Plasmodium falciparum ,using a nano luciferase reporter read-out” (2022).
Out of some 150,000 compounds screened, about 540 (0.36%) showed an effect of 50% or more. This is one part of the list.

system: Plasmodium falciparum; test: Primary screen in NF54 nanoGlo assay, in single point, at 2uM, 72h; a lower Z score goes with more inhibition; format: functional, Erythrocyte; settings: timepoint 72 hour

SMILES	% Inhibition [%]	Z score
Cc1ccc(CN(Cc2ccc3c(c2)OCO3)C[C@H](O)COCC(C)C)o1	-15	2.1
COC(C)c1noc(CN2CCCC2C(O)C(F)(F)F)n1 (stereo unspecified)	-8	0.81
COc1cccc(C[C@@H]2C(=O)Nc3ccc(Br)cc32)c1OC1CCCC1	17	-1.51
CC1OCCC1S(=O)(=O)N[C@H]1C[C@H](c2ccccc2F)C1 (stereo partly specified)	3	-0.51
COc1ccc([N+]2=C3CCCCN3C[C@]2(O)c2ccc(OC(F)F)cc2)cc1	-4	0.52
Cc1ccsc1C(=O)NCc1ccc(N2CCCC2)cc1	-19	1.71
CCn1nc(-c2ccco2)nc1C[C@H]1C(=O)NCCN1C(C)C	2	-0.22
COCc1nocc1C(=O)N[C@H]1CCOC(C)(C)C1	35	-3.99
COC(=O)N[C@@H](C)C(=O)NCc1cnc(C)cc1C	-7	0.91
CCc1c(C)nc2nc(-c3ccco3)nn2c1NCc1ccc(F)cc1	-26	4.71
O=S(=O)(CCNCc1cc(O)c2cccc(Cl)c2n1)N1CCCC1	-3	0.48
COCCNc1c(-c2ccc(F)cc2)nc2sc(C(=O)N3CCCC3)c(C)n12	-21	3.56
CN(CC(C)(CO)CO)c1ccc(F)cn1	1	-0.18
CCc1ccnc(CNC(=O)N[C@H]2CCCC23CCOCC3)c1	-5	0.87
Cc1ccc(NC2=NC(N)=NC3(CCCCC3)N2)c(C)c1	-4	0.48
CC1=C[C@@H](CO)[C@H](C(C)C)C[C@H]1Cc1nnc(C(C)(C)C)o1	23	-2.61
CC[C@@H](C#N)S(=O)(=O)NC(C)(C)Cc1cccc(OC)c1	3	-0.37
Cc1cc(CNC(=O)N2CCN(Cc3ccccc3)C(C)(C)C2)no1	18	-2.26
Cc1noc(C)c1CN1CCC[C@H](Cn2cc(C(C)(C)O)nn2)C1	-21	1.9
O=C(NC1CCCC1)c1cc2c(s1)CCCCC2	-9	0.74
Cc1nc(CN)cc(N[C@@H](C)C2CCCCC2)n1	-5	0.8
CC[C@H](C)Oc1ccc(-c2nc(=O)c(CCC(=O)NC3CCCCC3)n[nH]2)cc1	1	-0.16

SMILES	% Inhibition [%]	Z score
O=C(Nc1cccnc1)c1ccc(Oc2ncnc3sccc23)cc1	-10	1.55
Cc1cc(CS(=O)(=O)c2ccccc2F)on1	1	-0.18
CN(CCO)c1ncc(Cl)cc1F	2	-0.22
CCNc1ncc(S(=O)(=O)N(C)Cc2cscn2)cc1Cl	-5	0.7
O=C(O)C1(Oc2ccncc2)CCC(c2ccccc2)C1 (stereo unspecified)	-17	3.23
CCOC(=O)C(=O)c1n[nH]c(C(=O)OC)c1C(=O)OC	-5	0.65
CNC(=O)Cc1noc(-c2cc3ccccc3cc2O)n1	-5	0.54
CC(C)(C)Oc1nc(NC2CCC3(CC2)OCCO3)ncc1Br	-6	0.53
C#Cc1cccc(NC(=O)CCc2c(C)nc3[nH]n(C)c(=O)c3c2C)c1	-10	0.95
Cc1ccc(S(=O)(=O)NC[C@H]2OC[C@@H](NC(C)C)[C@@H]2O)cc1	-8	0.97
CC(C)[C@H](CC(=O)NS(C)(=O)=O)c1ccccc1	-7	0.84
Cc1cncn1C1CCN(C(=O)c2cc(Br)co2)CC1	-4	0.71
O=C1CCc2cc(NCc3cc4cc(F)ccc4o3)ccc2N1	-6	0.93
Cc1c2ccc(NC(=O)C3CCOCC3)cc2nn1C	3	-0.48
OC[C@H]1CN(Cc2cc(O)c3cccc(F)c3n2)C[C@@H]1CO	6	-1.11
CCN1C(=O)C[C@](CC(=O)N2CCC(COC)CC2)(c2cccc(C(F)(F)F)c2)C1=O	-1	0.24
O=C1[C@@H]2CCCCN2C(=O)N1c1cncc(Br)c1	-7	0.63
Cc1ccc(Cl)cc1NC(=O)c1cccn2c(-c3ccc(F)cc3)nnc12	-11	1.82
O=C(c1cccc(F)c1)N1CCC(N2CC3(CCCCC3)[C@H]2c2ccccc2)CC1	0	-0.03
Nc1cc(-c2ccc(F)cc2)nn1-c1nc(-c2ccc(Cl)cc2)cs1	12	-2.1
Cc1nc(N2CCCC2)nc(C)c1NC(=O)COc1ccc(Cl)cc1Cl	-11	1.68
CCc1nc([C@H](C)NC(=O)c2cc(Cn3cccn3)on2)cs1	-1	0.29

SMILES	% Inhibition [%]	Z score
Cc1n[nH]c(C(=O)N2CCC=C(F)C2)c1C	-6	0.59
COC(c1ccc(Cl)cc1)C(C)Nc1nccnc1C#N (stereo unspecified)	-7	1.05
CCCc1noc(CCC(=O)N2CCc3ccccc3C2)n1	0	0
CCc1nsc(N2CC[C@H](c3ccccn3)C2)n1	3	-0.31
COc1cc(F)c(C(=O)Nc2c(C)c(C3CC3)nn2-c2ccccc2)cc1OC	7	-0.84
COC(=O)N1CCc2ccc(F)cc2[C@@H]1C(=O)N1CCN(S(=O)(=O)C2CC2)CC1	-4	0.62
COc1ccc(C2=NN(C(=O)CN3CCCCC3C)C(c3ccccc3OC)C2)cc1 (stereo unspecified)	-4	0.56
Cc1nnsc1C(=O)N1CC[C@H](N2C(=O)COC2=O)C1	-2	0.34
CCc1nc(CN(C)Cc2nnc(C3CC3)n2C)no1	-9	0.8
CC(C)(C)C(=O)NCCN1c2ccccc2N(C2CC2)S1(=O)=O	-19	3.62
CN1CCCN(c2cnn(CCn3cnc4ccccc43)c(=O)c2)CC1	10	-1.22
O=C(NCCC1(O)CCCC1)c1cncs1	-34	3
COc1ccc(C(CC(=O)O)NC(=O)C2C3CCCCC32)c(OC)c1 (stereo unspecified)	12	-1.41
C[C@H]1CC[C@@H](C(=O)Nc2ccccc2F)O1	1	-0.1
N#CCN(C(=O)CCCOCCc1ccccc1)C1CC1	4	-0.51
CC(C)CC(=O)N1CCc2ccc(OC(C)C(=O)Nc3cccc(Cl)c3)cc2C1c1ccccc1 (stereo unspecified)	-25	2.4
Cc1nc(CC(=O)NCCCn2nccc2C2CC2)c(C)s1	-6	0.9
Cc1c(C(=O)NCCCn2ccnc2)cnn1C	-1	0.22
N#CCCN(Cc1ccccc1)C[C@H](O)c1cccs1	-5	0.7
C=C(C)CNC(=O)[C@H]1CCCN(C2CCN(C3Cc4ccccc4C3)CC2)C1	8	-1.46
CCC[C@H](NC(=O)CNS(C)(=O)=O)c1nccn1C	-8	1.16
O=C1NCCCn2cc(S(=O)(=O)NCc3ccncc3)cc21	-11	1.24

SMILES	% Inhibition [%]	Z score
CCn1ccnc1CNc1ccc(OCC(F)(F)C(F)F)nc1	-12	1.53
CC/C=C(/CN1C[C@H](CO)[C@@H](CO)C1)c1ccccc1	-10	1.52
O=C(Cc1c(F)cccc1Cl)Nc1cnc(-c2ccc(F)cc2)nc1	-23	2.03
COc1ncccc1[C@H]1CCN(C(=O)c2sccc2CN(C)C)C1	-6	0.74
c1cc(CNc2ccc3scnc3c2)ccn1	3	-0.38
O=C(Nc1ccccc1)c1cccc2c(=O)c3c([nH]c12)CCC3	-10	1.99
Cc1ccccc1OCCn1cnc2cc3c(cc21)OCCO3	-5	0.54
CN(CCc1ccccn1)C(=O)[C@@]12CCCC[C@H]1N(C)C(=O)CC2	-12	1.13
CC(C)NC(=O)NC(=O)CN(C)C1CCCCC1	2	-0.26
Cc1[nH]c2c(CN3CC(N4CCOCC4)C3)cccc2c1C	7	-0.82
O=C(Nc1ccccc1-c1ccccc1)c1cnc(OC2CCOCC2)c(Cl)c1	3	-0.62
FC(F)(F)c1cnc(Cc2ccc(OCc3ccc(Cl)cc3)cc2)c(Cl)c1	-3	0.4
Cc1n[nH]c([C@@H]2CCN(C(=O)C3CCOCC3)CCN2CC2CCOCC2)n1	-1	0.17
O=C(Nc1ccc2c(c1)OCCO2)c1nn(-c2ccc(F)cc2)c2ccccc2c1=O	-14	1.74
CN(Cc1csc(-c2ccccc2)n1)Cc1nccn1C	-9	1.63
COc1ccc(Nc2nnc(/C=C/c3ccccc3)c(=O)n2N)cc1	43	-5.59
COc1ccccc1OCC(=O)N1CCC[C@H](Nc2cccc(F)c2)C1	-3	0.51
Cc1ccc2ncc(CN3CCC(CC(=O)N4CCCC4)CC3)n2c1	-2	0.29
CCn1cnnc1C[C@H]1CCN(S(=O)(=O)c2ccccc2)C1	6	-1.02
CC1=CCCC(C)C1CNCCc1c(C)noc1C (stereo unspecified)	4	-0.39
O=C(Cc1noc2ccccc12)Nc1cc(N2CCCC2=O)ccc1Cl	-17	2.27
COc1ccc(C(=O)[C@@H]2[C@@H]3CCCN3[C@]3(C(=O)Nc4ccccc43)[C@@]23C(=O)Nc2ccccc23)cc1OC	-13	1.71
